± gives the standard deviation of the averaged measurements. Over roughly 33,000 sequences, “E-score (dimensionless, -0.5 to 0.5)” has its median near -0.049; the highest 2% begin near 0.37. The list shows a part of the results.
Each sequence was assayed on T1, PmTbr T-box DNA-binding domain (GST fusion) (assay: PBM E-score of 8-mer (E-score (dimensionless, -0.5 to 0.5)); Tbr is Tbrain of the sea star Patiria miniata (Pm) or the sea urchin Strongylocentrotus purpuratus (Sp); higher = stronger binding preference; most listed sequences are background and not binding sites). Settings: the construct has about 5 more residues each side.
T1 sequence: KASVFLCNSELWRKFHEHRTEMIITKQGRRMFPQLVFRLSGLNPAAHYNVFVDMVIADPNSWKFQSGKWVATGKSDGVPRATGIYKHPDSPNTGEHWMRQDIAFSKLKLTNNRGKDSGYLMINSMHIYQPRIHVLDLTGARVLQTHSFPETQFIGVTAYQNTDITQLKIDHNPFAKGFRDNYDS
Procedure: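 Universal protein-binding microarray (Agilent AMADID 016060, 60-bp probes with a 35-bp variable region) incubated with 200 nM GST-fused Patiria miniata Tbr T-box DNA-binding domain (residues 272-466) in PBS pH 7.5. Scored for every ungapped 8-mer (given with its reverse complement) by the Universal PBM Analysis Suite as E-score (modified Wilcoxon-Mann-Whitney enrichment, range -0.5 to 0.5; >0.45 counts as bound) and Z-score of median probe intensity. Two replicate arrays (datasets 1 and 2).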

| Sequence | PBM E-score of 8-mer |
| --- | --- |
| ACACTTTC | 0.408 ± 0.0072 |
| GCTGTGTA | -0.173 ± 0.045 |
| CTCTAAGC | 0.0538 ± 0.0073 |
| ACAAAGAC | -0.0502 ± 0.015 |
| CATAGGGA | -0.107 ± 0.0059 |
| CCCCCTCA | -0.0539 ± 0.067 |
| CCGAATAG | -0.0283 ± 0.03 |
| ACCTAGGC | 0.0409 ± 0.035 |
| CATCAGTC | -0.208 ± 0.036 |
| ACGTGGAT | -0.0144 ± 0.032 |
| ACCCCAAC | 0.121 ± 0.15 |
| ACGCAGTG | 0.0891 ± 0.085 |
| ATGTACAA | -0.192 ± 0.076 |
| ACGGTACC | 0.021 ± 0.049 |
| ACAATATA | 0.166 ± 0.1 |
| CTATGCAA | -0.0607 ± 0.037 |
| CTCCAGTA | -0.181 ± 0.038 |
| CGCTCCTC | 0.109 ± 0.02 |
| TAACCAGA | -0.0928 ± 0.048 |
| ACTGCCAT | -0.12 ± 0.074 |
| ACCCTACG | 0.0529 ± 0.027 |
| AGTCATAC | -0.0882 ± 0.051 |
| ACCGGGAT | -0.118 ± 0.023 |
| CGTTCCGA | -0.13 ± 0.0092 |
| GCACATCC | 0.136 ± 0.038 |

| Sequence | PBM E-score of 8-mer |
| --- | --- |
| ATCCTCTC | -0.0363 ± 0.027 |
| GGGAGGCA | -0.129 ± 0.016 |
| GTCGCAAA | 0.0796 ± 0.029 |
| CGTACCCC | -0.186 ± 0.063 |
| ACAAAGAT | 0.00791 ± 0.023 |
| AGGCTGTA | -0.117 ± 0.092 |
| ACATTATC | 0.0564 ± 0.053 |
| AATTCCTA | -0.191 ± 0.082 |
| CTAGGCAG | -0.0697 ± 0.037 |
| ACATGGAA | -0.0384 ± 0.055 |
| ACACCGGT | 0.22015 ± 2.8e-05 |
| GAGTCACA | 0.237 ± 0.0075 |
| CCACAACA | 0.203 ± 0.049 |
| CGACCAGC | 0.0347 ± 0.12 |
| AGTCTTAA | -0.139 ± 0.04 |
| CCATAACA | 0.122 ± 0.01 |
| ATTGGGTC | -0.0189 ± 0.031 |
| ACCGCTCG | -0.175 ± 0.13 |
| CTAGCTAA | -0.0114 ± 0.016 |
| GTTGAGTA | -0.282 ± 0.074 |
| ATTTCTAA | -0.0446 ± 0.046 |
| CCCAGAAC | -0.157 ± 0.065 |
| AGCGCGAC | 0.242 ± 0.003 |
| AATCCTAC | -0.284 ± 0.025 |
| ATTCGGCA | 0.000915 ± 0.0093 |

| Sequence | PBM E-score of 8-mer |
| --- | --- |
| CATCAAGC | 0.019 ± 0.13 |
| AGTCCAGC | -0.198 ± 0.067 |
| AACCTTTG | -0.194 ± 0.029 |
| GGCCGCCC | -0.109 ± 0.018 |
| GGTTAACC | -0.244 ± 0.0052 |
| AAGCGTCA | 0.294 ± 0.019 |
| CGATTCCA | -0.078 ± 0.029 |
| AACATTCC | -0.131 ± 0.058 |
| CGAGGTTC | -0.0408 ± 0.02 |
| AGGTTACC | -0.041 ± 0.054 |
| ATGAAACC | -0.107 ± 0.037 |
| AGTCCCAA | -0.375 ± 0.045 |
| CGGAGTTC | -0.195 ± 0.018 |
| AATTGTGA | 0.306 ± 0.019 |
| TGTGAGAA | 0.43 ± 0.0057 |
| ACGGGATC | -0.0611 ± 0.011 |
| TCCACCCA | -0.175 ± 0.0046 |
| GAGAGTCA | -0.09 ± 0.016 |
| GCACTGAA | 0.115 ± 0.024 |
| ATCAGCTC | -0.219 ± 0.011 |
| ATGTAGTA | -0.143 ± 0.038 |
| TAAGTCTA | -0.0537 ± 0.026 |
| CTAACCCA | 0.152 ± 0.045 |
| CGGCCCCC | -0.246 ± 0.021 |
| TGTTGAAA | 0.291 ± 0.013 |

| Sequence | PBM E-score of 8-mer |
| --- | --- |
| CTTTAGGA | -0.239 ± 0.055 |
| AAGCTGTG | 0.114 ± 0.079 |
| ATGAGCTA | -0.222 ± 0.026 |
| GGGATTTA | -0.232 ± 0.046 |
| ACCATCAT | -0.213 ± 0.011 |
| GTTAAATA | 0.103 ± 0.08 |
| GAACGGCA | -0.0886 ± 0.042 |
| CAGCACGA | 0.0849 ± 0.056 |
| CACGTAAC | 0.0224 ± 0.068 |
| GCCGCTAC | 0.0172 ± 0.041 |
| AGTATGTG | 0.126 ± 0.022 |
| TCTTTGAA | -0.0798 ± 0.067 |
| CACTATCA | 0.332 ± 0.0052 |
| GAACAAAA | -0.0691 ± 0.11 |
| CAGTTCAA | -0.312 ± 0.0068 |
| AACCAAAA | -0.164 ± 0.055 |
| ATTTCTAG | -0.0723 ± 0.12 |
| ACCCAGGA | -0.187 ± 0.012 |
| CCCACATA | -0.214 ± 0.08 |
| CCAGCACA | 0.0863 ± 0.081 |
| CGCTCCGC | -0.0169 ± 0.051 |
| TAGGCTAA | -0.263 ± 0.042 |
| GTAGTGAA | 0.101 ± 0.078 |
| CACGCGAA | 0.198 ± 0.032 |
| AATCTGCA | 0.0407 ± 0.015 |

| Sequence | PBM E-score of 8-mer |
| --- | --- |
| CACAAGTG | 0.367 ± 0.0037 |
| ATGATCGG | -0.215 ± 0.044 |
| ACGGTTAA | -0.0191 ± 0.0063 |
| GTGTATGA | -0.0786 ± 0.023 |
| ATCCTTTA | -0.106 ± 0.024 |
| ATTTATGA | -0.0871 ± 0.0076 |
| AGAGGTAT | -0.131 ± 0.011 |
| CGTTTGAC | 0.165 ± 0.0044 |
| AAATTATC | 0.0435 ± 0.13 |
| GACGTAAC | -0.158 ± 0.066 |
| GTGTAGGA | -0.0274 ± 0.014 |
| AGATTGAC | 0.0989 ± 0.026 |
| GAAGGATA | -0.0423 ± 0.084 |
| ACAGGCGC | 0.136 ± 0.067 |
| AGCAGAAG | -0.0915 ± 0.094 |
| TCGTATCA | 0.129 ± 0.033 |
| GAGCGCAA | -0.0576 ± 0.032 |
| GCGGGTTA | 0.0385 ± 0.009 |
| CCGCGAGA | 0.214 ± 0.0083 |
| CGAGTCAC | 0.0646 ± 0.025 |
| AGCTGTTG | 0.2441 ± 0.0021 |
| TCGAGTAA | -0.109 ± 0.064 |
| ATGAGAAG | -0.261 ± 0.0038 |
| AGGCGCCT | -0.121 ± 0.11 |
| ACGCGAGC | 0.204 ± 0.0032 |

| Sequence | PBM E-score of 8-mer |
| --- | --- |
| GAGGTCCA | -0.2525 ± 0.00076 |
| CAAACTGG | 0.102 ± 0.039 |
| AACGAATA | -0.0889 ± 0.014 |
| CACCCTCG | 0.332 ± 0.039 |
| GCAGTAGC | -0.139 ± 0.052 |
| ACGGGGAT | 0.00658 ± 0.095 |
| CTTGGGTC | -0.199 ± 0.061 |
| TTGGAAAA | -0.15 ± 0.084 |
| AGGCAATA | -0.29 ± 0.042 |
| AAGTCTGA | -0.131 ± 0.014 |
| CGAGGCCG | -0.118 ± 0.051 |
| CTAGGGAC | -0.0591 ± 0.03 |
| GTGTCTCA | 0.202 ± 0.0071 |
| CACAGAAC | -0.0434 ± 0.018 |
| CAGCCATA | -0.103 ± 0.029 |
| AGTACGAC | -0.0402 ± 0.04 |
| AGGAGAAG | -0.369 ± 0.11 |
| CTTGTCAA | 0.305 ± 0.034 |
| AATAATAT | -0.0995 ± 0.02 |
| AGCCATTC | -0.0603 ± 0.0031 |
| CCACATGG | 0.0188 ± 0.11 |
| CACGTGTA | 0.2502 ± 0.00031 |
| GACATCTA | 0.00475 ± 0.049 |
| ATCCCCAT | -0.153 ± 0.081 |
| ATGTATGC | -0.313 ± 0.036 |

| Sequence | PBM E-score of 8-mer |
| --- | --- |
| CCGTACGC | 0.0309 ± 0.032 |
| CAAGGGAG | 0.0129 ± 0.064 |
| AAGCCGGT | -0.104 ± 0.082 |
| GCGGGAGC | 0.11 ± 0.073 |
| TATTGTGA | 0.221 ± 0.021 |
| AGCTTCGC | 0.164 ± 0.041 |
| AAAGACTA | 0.0435 ± 0.0041 |
| CGTCCTAG | -0.207 ± 0.031 |
| CCCCATCA | 0.016 ± 0.033 |
| CAGCTATC | -0.0508 ± 0.023 |
| ATCTAATA | -0.137 ± 0.06 |
| CGTAGATC | -0.291 ± 0.031 |
| ACTAGACA | 0.0421 ± 0.0072 |
| AGAGGATA | -0.09 ± 0.037 |
| CCTGCCAG | 0.175 ± 0.013 |
| ACGTTCCG | -0.127 ± 0.02 |
| GTTCCGGA | -0.29 ± 0.027 |
| AGTGGTAC | -0.105 ± 0.022 |
| ATGATCCG | -0.0592 ± 0.027 |
| AAAACGAC | -0.0291 ± 0.021 |
| ATGCAGCG | -0.0556 ± 0.018 |
| AGAATAGG | -0.0332 ± 0.043 |

— the supplement of paper PMC4166925
